The chains are these.
B1: CPEB3 Ribozyme (parent)
chain: UAACAGGGGGCCACAGCAGAAGCGUUCACGUCGCAGCCCCUGUCAGAUUCUGGUGAAUCUGCGAAUUCUGCUGUAUAUCUC

Read counts are not given, so values of variants with three or more changes are uncertain.

Variants of B1 are the subject of the data set. Kind of data set: self-cleavage, relative activity (ratio to wild type); higher = more cleavage; in vitro, sequencing. The procedure, abridged: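 After error-prone PCR and barcoding, CPEB3 ribozyme mutant libraries were transcribed with T7 RNA polymerase at 37°C for 5 hours, then given 15 min with DNase I before an EDTA stop, and they cleaved during both steps. Reverse transcription with template switching preceded Illumina sequencing. Relative activity divides a variant's cleaved/total read fraction by the unmutated ribozyme's. At least 5 reads were required per variant, and three batches were averaged.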
On to A77U U78C U80C, for which the self-cleavage stood at 0.72.

On to C68G A77G U80C, for which the self-cleavage was 0.46.

On to C68U U72G A77U, for which the self-cleavage turned out to be 0.51.

Regarding U66C U72C U80A, the self-cleavage was determined as 0.3.

U66C G73A U80A: the self-cleavage stood at 1.13.

For U69C U72A U80C, the self-cleavage stood at 0.51.

In the case of A65U U66C U80C, the self-cleavage turned out to be 0.26.

For the variant U72C A75G U76C, the self-cleavage amounted to 1.06.

As for U67A U69A A75G, the self-cleavage worked out at 0.19.

In the case of G70A U76A U80C, the self-cleavage turned out to be 0.74.

Turning to U67A U72C U80C, the self-cleavage was found to be 0.35.

With U69C A77G U80A, the self-cleavage was 0.96.

For U66C C68G U69A U74A, the self-cleavage was determined as 0.11.

Take U66C U78C C81U: the self-cleavage was 0.32.

In the case of G70C C71A U72C, the self-cleavage was 0.3.

Consider U66C U67C C71A A75C U78C, for which the self-cleavage is 0.33.

With U69A U72C U80C, the self-cleavage was determined as 0.45.

U67C U76A U80C: the self-cleavage was 0.32.

As for A65U U72G U76C, the self-cleavage was 0.54.

Consider U69A U72A U74A, for which the self-cleavage was found to be 0.17.

In the case of U72C U78C C79G, the self-cleavage was determined as 1.26.

For A65U U67C U78C, the self-cleavage is 0.4.

For U66C U69C U78C, the self-cleavage stood at 0.47.

With C71A U72C U78A, the self-cleavage is 0.33.

U66A U74C U78C: the self-cleavage stood at 0.85.

As to G70A U72C U80A, the self-cleavage was 0.52.

For U72A A77U C79U, the self-cleavage came out at 1.26.

Regarding U72C U76C U80C, the self-cleavage came out at 1.17.

For U72C A77U C81A, the self-cleavage was determined as 1.27.

For the variant U72C U76A A77U, the self-cleavage is 1.04.

For U72C U74C U78A, the self-cleavage came to 1.41.

U67A U74C U76A: the self-cleavage turned out to be 1.1.

With U67G U72A A75G, the self-cleavage was found to be 0.41.

Consider U66A U67C C71G U72A, for which the self-cleavage turned out to be 0.32.

In the case of U67A U69C C79A, the self-cleavage worked out at 0.21.

With A65U U67A U69A U72A, the self-cleavage is 0.23.

U66C A75U C79A: the self-cleavage was 0.64.

As to U72C U76C U78A, the self-cleavage is 1.19.

U67C U69A G70A: the self-cleavage was 0.25.

With A65U U67C U72C, the self-cleavage is 0.34.

Consider U74A C79A U80C, for which the self-cleavage came out at 1.3.

On to U69A U72G A75G, for which the self-cleavage was found to be 0.45.

In the case of U67C U69C U78C, the self-cleavage was found to be 0.39.

For the variant U69G A75C A77C, the self-cleavage was determined as 0.82.

For U67C U72C U78C, the self-cleavage worked out at 0.27.

On to U69C U72C A77C, for which the self-cleavage is 0.37.

These data come from the RNAGym collection of RNA variant scans (doi:10.1093/nar/gkz1192).
